The results in this text go back to PMC4336329 (PLoS ONE, 2015).

Out of some 310,000 compounds screened, about 14,000 (4.5%) showed an effect of 50% or more. Effects have a minus sign here. Some of the results follow.
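Further: peak tail current of the secondary pulse compared with the same well before compound.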

The assay deals with human ether-à-go-go-related gene (hERG) potassium channel (human, UniProt Q12809). In words: primary screen, population patch clamp on CHO cells stably expressing hERG.
human ether-à-go-go-related gene (hERG) potassium channel, sequence (Q12809 whole entry, looked up): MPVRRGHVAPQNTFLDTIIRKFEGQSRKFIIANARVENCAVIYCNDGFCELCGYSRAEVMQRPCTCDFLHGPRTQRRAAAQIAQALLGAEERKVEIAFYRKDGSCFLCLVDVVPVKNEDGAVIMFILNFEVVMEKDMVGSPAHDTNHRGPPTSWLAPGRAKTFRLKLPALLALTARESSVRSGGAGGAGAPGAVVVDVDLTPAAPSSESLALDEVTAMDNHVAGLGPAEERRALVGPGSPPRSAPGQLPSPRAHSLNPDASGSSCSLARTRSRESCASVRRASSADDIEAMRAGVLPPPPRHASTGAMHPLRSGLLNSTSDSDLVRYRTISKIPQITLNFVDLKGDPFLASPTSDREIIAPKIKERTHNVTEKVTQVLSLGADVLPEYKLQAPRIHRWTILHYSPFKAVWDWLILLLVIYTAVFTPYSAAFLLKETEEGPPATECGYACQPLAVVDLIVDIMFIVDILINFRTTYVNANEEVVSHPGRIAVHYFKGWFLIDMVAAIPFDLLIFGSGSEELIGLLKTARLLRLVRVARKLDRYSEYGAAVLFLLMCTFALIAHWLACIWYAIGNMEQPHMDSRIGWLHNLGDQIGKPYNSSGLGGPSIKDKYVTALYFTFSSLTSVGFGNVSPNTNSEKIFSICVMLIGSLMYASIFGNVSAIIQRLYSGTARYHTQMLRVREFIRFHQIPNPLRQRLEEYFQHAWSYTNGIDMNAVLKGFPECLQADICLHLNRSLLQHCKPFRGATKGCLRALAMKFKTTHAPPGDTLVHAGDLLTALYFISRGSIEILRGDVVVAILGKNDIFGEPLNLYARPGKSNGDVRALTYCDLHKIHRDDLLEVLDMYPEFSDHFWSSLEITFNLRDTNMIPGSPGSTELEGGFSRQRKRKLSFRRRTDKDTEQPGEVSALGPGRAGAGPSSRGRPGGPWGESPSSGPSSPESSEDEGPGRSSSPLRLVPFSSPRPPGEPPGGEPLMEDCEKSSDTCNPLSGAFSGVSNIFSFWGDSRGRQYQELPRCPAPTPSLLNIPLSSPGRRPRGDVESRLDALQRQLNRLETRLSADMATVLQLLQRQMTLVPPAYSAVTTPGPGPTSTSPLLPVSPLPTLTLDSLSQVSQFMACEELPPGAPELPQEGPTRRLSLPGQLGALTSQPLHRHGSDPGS
As for `COCC(C)n1c(C)cc(C(=O)COC(=O)CN=C2NS(=O)(=O)c3ccccc32)c1C` (stereo not shown), the “hERG current change (%, negative = inhibition) at 10uM” value is 18.4%. To `Cc1cccc(N2CCN(Cc3nc(CC4CC4)no3)CC2)n1` belongs -11.2%; to `Cc1csc(NC(=O)Cc2ccccc2Cl)n1`, 21.4%. Turning to `CC(=O)OCC(=O)Nc1ccc(SC(F)F)cc1`, the “hERG current change (%, negative = inhibition) at 10uM” value is -8.2%. The same measure for `O=C(OCc1cncs1)c1ccccc1`: 22.7%.

For `O=C(COc1ccccc1Cl)NCCCN1CCOCC1`, the “hERG current change (%, negative = inhibition) at 10uM” value was -3.76%.

`COc1ccc(N(CCC#N)S(=O)(=O)c2cccc3nsnc23)cc1`: the “hERG current change (%, negative = inhibition) at 10uM” value is on record as -10.1%.

`O=C(O)CCC(=O)N1N=C(c2ccccc2)CC1c1ccc2c(c1)OCO2` (stereo not shown): the “hERG current change (%, negative = inhibition) at 10uM” value amounted to 14%. Take `Cc1c(NS(=O)(=O)c2ccccc2)cc(Cl)c(O)c1C`: the “hERG current change (%, negative = inhibition) at 10uM” value was -5.08%.

Regarding `Cc1ccc(C(C(=O)NCc2ccco2)N(C(=O)Cn2nnc3ccccc32)c2ccccc2)o1` (stereo not shown), the “hERG current change (%, negative = inhibition) at 10uM” value is listed as -2.02%. As to `COc1ccc(NC(=O)c2sc3nc(N4CCOCC4)c4c(c3c2N)CC(C)(C)OC4)cc1`, the “hERG current change (%, negative = inhibition) at 10uM” value stood at 10.6%.

For `Cc1ccc(C)c(NC(=O)CSc2nnc(Cc3cccn3C)n2-c2ccc(F)cc2)c1`, the “hERG current change (%, negative = inhibition) at 10uM” value is given as 0.646%. Take `CCc1ccc2c(COC(=O)CNS(=O)(=O)c3ccc(NC(C)=O)cc3)cc(=O)oc2c1`: the “hERG current change (%, negative = inhibition) at 10uM” value is given as 6.49%. The same measure for `Cc1cc(C)cc(N(CCC#N)C(=O)COC(=O)CNC(=O)c2sc3ccccc3c2Cl)c1`: -9.94%; for `Cn1nc(-c2ccccc2)c(COC(=O)c2cccc(Cl)c2)c1S(=O)(=O)c1ccccc1`: -2.01%; for `CC1(c2ccccc2)NC(=S)N2C1NC(=S)N2c1ccccc1` (stereo not shown): 10.2%. To `CCC(Cc1ccccc1)NS(=O)(=O)c1ccc2c(c1)NC(=O)CS2` (stereo not shown) belongs -22.7%. For the compound `Nc1nc(NCCCN2CCOCC2)nc(Nc2ccc(Cl)cc2)c1[N+](=O)[O-]`, the “hERG current change (%, negative = inhibition) at 10uM” value is 7.65%. `CCn1c(CNc2cccc(Cl)c2)nnc1SCc1ccccc1`: the “hERG current change (%, negative = inhibition) at 10uM” value is reported as -0.385%. To `O=C(CCC(=O)N1CCOCC1)Nc1nnc(C2CCCCC2)s1` belongs -0.44%; to `CCOP(=O)(OCC)c1nc(-c2ccccc2)oc1N1CCCCC1`, 4.4%. Turning to `Cc1ccc(Nc2nc(C)cs2)cc1`, the “hERG current change (%, negative = inhibition) at 10uM” value is recorded as 5.82%. As to `CCOC(=O)c1c(C)n(Cc2ccco2)c2ccc(OC)cc12`, the “hERG current change (%, negative = inhibition) at 10uM” value was -46.2%. The same measure for `O=C(NC1CCCCC1)NC1CC2CCC(C1)N2C(=O)NCc1ccccc1` (stereo not shown): 15.3%; for `CCN(CC)C(=O)COc1cc(C)cc2oc(=O)c3c(c12)CCCC3`: -25.5%; for `O=c1[nH]c(O)c(N=Nc2ccc3c(c2)OCCO3)c(=O)[nH]1`: 14.2%. Take `COCCn1c(C)cc(C(=O)CSc2nc(C)cc(C)c2C#N)c1C`: the “hERG current change (%, negative = inhibition) at 10uM” value is recorded as -8.96%. To `COc1ccc(C(=O)NCCc2ccc(C)cc2)cc1OC1CCN(C(C)=O)CC1` belongs -4.05%.

Regarding `CCOC(=O)C1=C(CNCc2ccc(C)cc2)NC(=O)NC1c1ccc(OC)cc1` (stereo not shown), the “hERG current change (%, negative = inhibition) at 10uM” value is given as -23.7%. With `CCOC(=O)OC(C)OC(=O)[C@@H]1N2C(=O)[C@@H](NC(=O)[C@H](N)c3ccccc3)[C@H]2SC1(C)C.Cl` (stereo partly shown), the “hERG current change (%, negative = inhibition) at 10uM” value is recorded as 12.7%.

On to `O=C(CSc1nc(=O)n2ccccc2n1)NCCc1ccccc1`, for which the “hERG current change (%, negative = inhibition) at 10uM” value is listed as -1.36%.

With `NC(=O)CSc1nnc(-c2cccs2)n1-c1ccccc1`, the “hERG current change (%, negative = inhibition) at 10uM” value is 10.2%.

Regarding `O=C(Nc1ccccc1)OCc1cc(-c2ccc(Cl)cc2)on1`, the “hERG current change (%, negative = inhibition) at 10uM” value was determined as 11.6%.

Turning to `O=C(CSc1nnc(-c2ccccn2)n1Cc1ccccc1)Nc1ccc2c(c1)OCO2`, the “hERG current change (%, negative = inhibition) at 10uM” value is -5.94%. To `CCCCS(=O)(=O)N1CCCC(C(=O)N2CCOCC2)C1` (stereo not shown) belongs 20.3%; to `Cc1ccc(SCC(=O)N2CCCC2)cc1`, -7.31%. As to `Cc1ccc(C(c2sc3nc(C)nn3c2O)N2CCN(c3ccc(F)cc3)CC2)cc1` (stereo not shown), the “hERG current change (%, negative = inhibition) at 10uM” value was -65.2%. Consider `CCCCN(C)C(=O)c1cc2c(s1)-c1ccccc1S(=O)(=O)C2`, for which the “hERG current change (%, negative = inhibition) at 10uM” value is on record as -56.5%. To `CCOc1ccc(C(c2c(O)nc(SC)[nH]c2=O)c2c(O)nc(SC)[nH]c2=O)cc1` belongs 11.1%; to `O=C(Nc1nnc(Cc2ccccc2)s1)C1CCN(C(=O)c2ccco2)CC1`, -36%; to `Cc1ccc(C2=NN(S(=O)(=O)c3ccccc3)C(c3ccco3)C2)cc1` (stereo not shown), 8.53%. To `COc1ccc(S(=O)(=O)N2CCN(C(=O)c3cc(C)oc3C)CC2)cc1` belongs 0.806%; to `CCn1ncc(/C=C/C(=O)NCc2cnn(C)c2C)c1C`, 13.9%.

`CC(=O)N1CCN(C(=O)CNc2cc(C(F)(F)F)ccc2OCC(F)(F)F)CC1`: the “hERG current change (%, negative = inhibition) at 10uM” value is given as -3.44%.

Turning to `O=C(COc1cccc2ccccc12)NNC(=O)CSCCO`, the “hERG current change (%, negative = inhibition) at 10uM” value is -7.99%.

`CCCCCCNc1c([N+](=O)[O-])cc(C)cc1[N+](=O)[O-]`: the “hERG current change (%, negative = inhibition) at 10uM” value is given as 1.09%. The same measure for `O=C(Nc1ccc(NC(=O)c2cc3ccccc3o2)cc1)c1ccco1`: 21.8%; for `CC(C)(C)c1ccc(C(=O)c2c[nH]c(C(=O)NCCCN3CCOCC3)c2)cc1`: -7.27%; for `CC1CCC(C(=O)c2c(O)c3ccccc3oc2=O)CC1` (stereo not shown): 15.9%.

Regarding `Cc1ccc(C(CC(=O)c2ccco2)SCCO)cc1` (stereo not shown), the “hERG current change (%, negative = inhibition) at 10uM” value is 6.79%. To `COC(=O)C1(Cc2cc(-c3cccnc3)no2)CCN(C(=O)OC(C)(C)C)CC1` belongs -2.42%; to `NC(=NCCc1ccccc1)NS(=O)(=O)c1ccc2ccccc2c1`, 5.14%; to `COc1ccc(C(CNC(=O)c2c(C)nn(Cc3ccc(C)cc3)c2Cl)N2CCOCC2)cc1` (stereo not shown), -37.4%. Regarding `COc1cc(NC(=O)c2cc3c(CO)cnc(C)c3oc2=Nc2cccc(C(N)=O)c2)cc(OC)c1`, the “hERG current change (%, negative = inhibition) at 10uM” value is -22.7%. As to `COCCNC(=O)CSC1=N/C(=C/c2ccc(Cl)c(Cl)c2)C(=O)N1c1ccccc1F`, the “hERG current change (%, negative = inhibition) at 10uM” value was 8.35%.
